Measurements: ChEMBL document CHEMBL4888484, “Replenishing the malaria drug discovery pipeline: Screening and hit evaluation of the MMV Hit Generation Library 1 (HGL1) against asexual blood stage Plasmodium falciparum ,using a nano luciferase reporter read-out” (2022)
Out of some 150,000 compounds screened, about 540 (0.36%) showed an effect of 50% or more. The list shows a part of the results.

Tested on: Plasmodium falciparum
Assay: Primary screen in NF54 nanoGlo assay, in single point, at 2uM, 72h; a lower Z score goes with more inhibition
Format: functional, Erythrocyte
Conditions: timepoint 72 hour

Compound	% Inhibition	Z score
CC(C)c1nnc(COCc2ncc[nH]2)s1	11%	-1.41
C[C@]1(C#N)CCCN(C(=O)[C@H]2CC[C@@H](O)CC2)C1	-4%	0.73
COc1cc2ccncc2cc1OC(=O)c1scnc1C	-5%	0.77
OCCn1nc([C@H](O)c2ccccc2)nc1-c1cn2ccccc2n1	-5%	0.58
COC(C)(C)C[C@H](C)Nc1nc(C)cc(C#N)n1	-8%	0.64
CC(C)(O)CNC(=O)C(=O)Nc1cc(F)c(F)c(F)c1	-7%	0.85
CN(C(=O)COc1cccc2c1CCCC2)C1CCCCC1O (stereo not given)	-11%	1.28
Cc1cc(-c2nc(C3CC3)no2)c(C)n1CC(=O)NCc1ccccc1Cl	0%	0.07
CCn1ccnc1C(C)N1C(=O)C2CC3CCCCC3N2C1=O (stereo not given)	-4%	0.61
Cn1nc([C@@H]2CCCN2S(=O)(=O)Cc2ccccc2F)n(Cc2ccccc2)c1=O	-8%	1.01
COc1ccc([C@H](CN=C(N)N(C)C2CC2)N2CCCCC2)cc1	-10%	1.8
O=C(CNc1cccc(C(F)(F)F)c1)N1CCC[C@H]1c1nc2ccccc2s1	9%	-0.95
COc1cccc(C2=CCN(C(=O)Nc3cccnc3OC)C2)c1	2%	-0.31
O=C(CCN1CCCCC1)N1CCC[C@H]1c1nnc(-c2ccccc2)[nH]1	0%	0.04
Cc1ccc(NC(=O)Cc2c(C)nc3nc(-c4cccnc4)nn3c2C)cc1C	3%	-0.44
Cc1noc2ncnc(N3CCC[C@H](C(=O)NCCCN(C)c4ccccc4)C3)c12	2%	-0.24
CCc1ccc([C@@H]2CN(C(=O)c3ccc4cc[nH]c4n3)CCO2)cc1	-3%	0.57
CCOc1cccc(CCNS(=O)(=O)CCC2CCOCC2)n1	-2%	0.41
FC(F)Oc1ccccc1CN1CCCC12CCN(c1ncccn1)CC2	3%	-0.46
CCc1nc(C)c(CNC(=O)c2cc(C(C)=O)n[nH]2)s1	-8%	1.29
CC(=O)N[C@H]1CCN(Cc2cnc3c(-c4ccccc4)cnn3c2)C1	4%	-0.51
Cc1ccc(NC(=O)N2CCN(C(=O)C(=O)N3CCCC3)CC2)c(Cl)c1	6%	-1
CC1CCCC(OCC(=O)NC(C)CN2CCOC2=O)C1 (stereo not given)	-3%	0.22
CN1C(=O)CN(C(=O)[C@@H](c2ccccc2)C2CC2)c2ccccc21	-1%	0.13
O=C(NC[C@H]1CCN1C1CCOCC1)c1cc(C2CCCCC2)n[nH]1	3%	-0.55
Cc1cccn(CC2CC(F)(F)C2)c1=O	-3%	0.37
COc1ccc2c(c1)C(N1CCN(S(=O)(=O)c3ccc(F)cc3)CC1)=Nc1ccc(C)cc1O2	19%	-2.35
CO[C@@H]1CN[C@@H](C(=O)Nc2ccc3c(ccn3CC(C)C)c2)C1	3%	-0.5

Compound	% Inhibition	Z score
C[C@H](NC(=O)N1CCC(n2cc(-c3cccnc3)nn2)CC1)c1ccccc1	-5%	1.04
Cc1cc(NC(=O)C(=O)NC2CC(C)CC(C)(C)C2)n(-c2nc3c(c(=O)[nH]2)CCC3)n1 (stereo not given)	85%	-13.4
CCn1cnc2c1CCN(C(=O)c1nsc3ccc(C)cc13)C2	-13%	1.48
CC(=O)Nc1ccc2nc(NC(=O)C3CCCC3)sc2c1	1%	-0.11
Cc1c(Cl)cncc1NC(=O)CC1CC2CCC1O2 (stereo not given)	-1%	0.2
COc1ccc(-c2cn3cc(C(=O)N[C@@H](C)CO)nc3c(=O)n2CC2CC2)cc1	-6%	0.76
O=C(Nc1ccccn1)c1cnn(Cc2ccccc2)c1	-5%	0.62
COC1CCCC1NC(=O)Nc1ncc(Br)cc1C (stereo not given)	74%	-9.34
Cc1cc2c(cc1NC(=O)Nc1ccc3c(c1)OCO3)N(C)S(=O)(=O)N2C	7%	-1.06
CCCS(=O)(=O)N1CC(n2cc(C(=O)NCc3ccncc3)nn2)C1	-8%	1.63
c1cn([C@H]2CCCN(CC3CC4(CCC4)C3)C2)cn1	6%	-0.61
O=C(C[C@@H]1C=CCC1)Nc1ccc2c(c1)CCC(=O)N2	-11%	1.64
CC(C)N1CC2(CCN(C(=O)OC(C)(C)C)CC2)OC(=O)C1=O	-6%	0.75
CCCNC(=O)CCC(=O)N1CCCn2nc(-c3cccn3C)cc21	3%	-0.36
CC(C)(C)OC(=O)N1CC(OCC(=O)N(Cc2ccncc2)C2CC2)C1	-14%	1.84
Cc1n[nH]c(C)c1CCc1nc(C2CC2)nn1Cc1c(F)cccc1Cl	-23%	2.2
CC[C@H](OC1CCCCC1)C(=O)NCc1noc(-c2ccsc2)n1	31%	-3.54
COc1ccc(-c2cc(C(=O)Nc3cc(C)on3)c3ccccc3n2)c(OC)c1	1%	-0.16
CCc1ccc(NC(=O)CN2CCc3c(c(=O)c4cc(C)ccc4n3C)C2)cc1	-3%	0.29
CCN1CCCC[C@@H]1CNc1nc(C)ns1	-7%	1.35
O=C(c1cnn(Cc2ccccc2)c1)N1CCC[C@@H]1CO	5%	-0.66
CCc1nccn1-c1ncnc2ccccc12	2%	-0.27
CN1CCN(C(=O)c2cccc(-c3ccc(C#N)cc3)c2)C[C@@H]1CCO	-8%	1.17
Cc1nc(-c2cccn2C2CC2)n(-c2ccncc2)n1	-11%	2.14
CNC(=O)[C@@H]1CN(Cc2ccc(N3CCCCC3)c(C)c2)CCO1	-13%	1.45
Clc1cncnc1NCCCNc1ncncc1Cl	-4%	0.4
Cc1cc(NC(=O)Cn2nc(-c3cccc4cccnc34)c3ccccc32)n(C)n1	-7%	0.95
